Source: paper PMC4336329 (PLoS ONE, 2015)
Among all 310,000 compounds or so, about 2,200 (0.71%) showed an effect of 50% or more. Effects have a minus sign here. This is one part of the list.

What follows are compounds tested against human ether-à-go-go-related gene (hERG) potassium channel (human, UniProt Q12809) (assay: primary screen, population patch clamp on CHO cells stably expressing hERG).
Sequence of human ether-à-go-go-related gene (hERG) potassium channel (Q12809 whole entry, looked up): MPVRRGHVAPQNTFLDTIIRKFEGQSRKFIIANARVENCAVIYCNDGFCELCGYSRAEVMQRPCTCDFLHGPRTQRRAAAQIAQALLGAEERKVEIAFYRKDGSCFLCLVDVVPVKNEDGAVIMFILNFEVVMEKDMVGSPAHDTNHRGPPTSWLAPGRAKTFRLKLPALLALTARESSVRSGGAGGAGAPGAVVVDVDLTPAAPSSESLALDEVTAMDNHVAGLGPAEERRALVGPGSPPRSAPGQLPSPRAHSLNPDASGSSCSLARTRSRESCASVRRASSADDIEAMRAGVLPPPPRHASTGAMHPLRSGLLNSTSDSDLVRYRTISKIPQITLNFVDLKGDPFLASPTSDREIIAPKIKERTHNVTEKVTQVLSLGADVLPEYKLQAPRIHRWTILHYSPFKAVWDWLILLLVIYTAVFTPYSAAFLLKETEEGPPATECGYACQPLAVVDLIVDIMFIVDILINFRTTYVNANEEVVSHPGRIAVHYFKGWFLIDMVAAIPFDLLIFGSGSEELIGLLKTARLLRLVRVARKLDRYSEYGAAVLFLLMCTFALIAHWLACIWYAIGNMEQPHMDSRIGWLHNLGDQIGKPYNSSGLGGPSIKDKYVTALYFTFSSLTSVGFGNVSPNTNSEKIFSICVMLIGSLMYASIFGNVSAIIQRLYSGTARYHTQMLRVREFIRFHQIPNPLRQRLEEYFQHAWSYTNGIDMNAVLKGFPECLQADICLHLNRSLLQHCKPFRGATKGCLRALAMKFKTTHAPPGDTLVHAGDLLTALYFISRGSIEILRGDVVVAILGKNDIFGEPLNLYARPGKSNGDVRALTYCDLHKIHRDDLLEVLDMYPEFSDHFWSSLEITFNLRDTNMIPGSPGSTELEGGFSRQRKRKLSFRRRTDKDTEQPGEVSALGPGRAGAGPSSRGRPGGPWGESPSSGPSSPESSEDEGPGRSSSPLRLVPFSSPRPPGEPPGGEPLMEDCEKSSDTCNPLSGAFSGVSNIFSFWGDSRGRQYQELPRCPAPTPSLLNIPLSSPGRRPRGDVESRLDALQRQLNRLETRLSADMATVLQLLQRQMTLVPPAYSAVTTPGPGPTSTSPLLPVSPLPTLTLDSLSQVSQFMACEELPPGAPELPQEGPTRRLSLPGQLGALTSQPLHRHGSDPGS

Row | SMILES | hERG current change (%, negative = inhibition) at 1uM [%]
1 | COc1ccc(C/C(C)=N\NC(=O)c2c[nH]c3ccccc23)cc1OC | 9.41
2 | COc1ccc(-n2cnc3cc(C(=O)NC4CCCC4)ccc32)cc1 | -3.74
3 | Cc1ccc(-n2c(-c3ccc(Cl)cc3Cl)n[nH]c2=S)cc1 | 16.7
4 | Cc1cc(C)cc(NC(=O)Nc2ccc3c(c2)N(C)C(=O)CS3)c1 | 7.38
5 | CCC1CN(C(=O)N2CCC(C(=O)NCCc3ccc(OC)c(OC)c3)CC2)c2ccccc2O1 (centres unmarked) | 4.76
6 | O=C(O)C(=O)O.c1coc(CNCCc2c[nH]c3ccccc23)c1 | 10.9
7 | C/C(=N\NC(=O)COc1ccc(C(C)(C)C)cc1)c1ccc(-n2ccnc2)cc1 | 6.49
8 | CC(NCc1ccc(S(N)(=O)=O)cc1)C(=O)Nc1cc([N+](=O)[O-])ccc1Cl (centres unmarked) | -6.64
9 | CCOC(=O)/C=C1\CN(CCC(C)C)S(=O)(=O)c2ccccc21 | 6.97
10 | CCOC(=O)N1CCN(S(=O)(=O)c2ccc3c4c(cccc24)C(=O)N3)CC1 | -2.74
11 | [N-]=[N+]=CC(=O)CNC(=O)[C@@H](Cc1ccccc1)N1C(=O)c2ccccc2C1=O | 9.72
12 | CC1(C)Cc2ccccc2-c2nnc(SCC(=O)N3CCN(c4ccccc4)CC3)n21 | -10.9
13 | CNC(=O)C12CCC(C)(c3nc4cc(C)c(C)cc4nc31)C2(C)C (centres unmarked) | 2.03
14 | CCN1CCN(S(=O)(=O)Cc2ccccc2)CC1 | 13.6
15 | C=C(C)COc1ccc2c(C)c(CCC(=O)N3C[C@H]4C[C@@H](C3)c3cccc(=O)n3C4)c(=O)oc2c1 | -15
16 | Cc1cc(C)cc(NC(=O)CCCSc2nc3ccccc3[nH]2)c1 | 7.13
17 | O=c1c2ccccc2nc2n1C(CSc1ccc(F)cc1)CN2 (centres unmarked) | 8.57
18 | COc1cc(OC)cc(-c2nnc(N(C)C(=O)c3ccncc3)s2)c1 | 1.34
19 | Cc1c(-c2ccccc2)sc(N)c1C(=O)N1CCOCC1 | -14.6
20 | O=C(CN1C(=O)CCOc2ccccc21)Nc1ccc(Cl)c(S(=O)(=O)N2CCOCC2)c1 | 13.9
21 | CCCCNC(=O)c1nn(-c2ccccc2OC)c(=O)c2ccccc12 | 1.81
22 | CCOC(=O)C(=O)Nc1ccccc1C(=O)NCc1ccccc1 | -1.34
23 | COC(=O)CS(=O)(=O)c1cccc2cccnc12 | 14.5

Row | SMILES | hERG current change (%, negative = inhibition) at 1uM [%]
24 | Cc1ccc(-c2c3c(nc4sc(C(N)=O)c(N)c24)CCCC3)o1 | 13.9
25 | O=C(Cn1nnc(-c2cc(C(F)(F)F)cc(C(F)(F)F)c2)n1)NNC(=S)Nc1ccc(Cl)cc1 | 10.4
26 | COc1ccc(N/N=C(\C#N)C(=N)N2CCCCC2)cc1 | 6.25
27 | COC(=O)c1c(NC(=O)CSc2nnnn2-c2ccccc2)sc2c1CCCC2 | -2.11
28 | Cc1nccn1-c1c2c(c(C#N)c3nc4ccccc4n13)CCC2 | 8.89
29 | Cc1nc2c(oc3ccc(Cl)cc32)c(=O)[nH]1 | 10.2
30 | Cc1ccc2c(c1)c1c(c(=O)n(-c3ccccc3)c(=O)n1CC(=O)NCC1CCCO1)n2C (centres unmarked) | 16.3
31 | CCCCNC(=O)CCn1c(=O)c2cccn2c2ccc(F)cc21 | 7.88
32 | O=S(=O)(Nn1cnnc1)c1ccc(F)cc1 | 22.5
33 | CC1(C)CC(=O)C2=C(C1)Nc1ccccc1NC2c1ccc2c(c1)OCO2 (centres unmarked) | 10.4
34 | COc1ccccc1NS(=O)(=O)c1ccc(/C=C/C(=O)O)cc1 | 8.03
35 | Cc1nc2sc(C(c3ccccc3)N3CCN(CCO)CC3)c(O)n2n1 (centres unmarked) | 8.04
36 | CC(C)CC(C(=O)Nc1cccc(O)c1)N1C(=O)c2ccccc2C1=O (centres unmarked) | 8.56
37 | O=C(CSCc1cccc(Br)c1)N=Nc1c(O)[nH]c2ccccc12 | 3.41
38 | COc1ccc(S(=O)(=O)N2CCC(C(=O)NCCC3=CCCCC3)CC2)cc1C | -26.9
39 | O=C1C(=Cc2ccc(Br)o2)C(=O)c2ccccc21 | 5.75
40 | COc1ccccc1NS(=O)(=O)c1cccc(C(=O)N/N=C/c2c(C)nn(-c3ccccc3)c2N2CCCC2)c1 | 5.93
41 | CC(c1ccccc1)C1C(C#N)=C(N)OC2=C1C(=O)CCC2 (centres unmarked) | 8.91
42 | CSCCCNC(=O)c1ccc(OC2CCN(CCc3ccccc3)CC2)cc1 | -18.9
43 | COC(=O)c1nn(-c2ccccc2)c(=O)cc1O | 9.88
44 | CC(C)CNC(=O)c1ccc(Cl)c(Cl)c1 | 10.7
45 | CCc1cccc2c(C(=O)COC(=O)c3c(C)noc3C)c[nH]c12 | 3.71
46 | O=C1N/C(=N\S(=O)(=O)c2ccccc2)S/C1=C\c1cc([N+](=O)[O-])ccc1O | 10.7

Row | SMILES | hERG current change (%, negative = inhibition) at 1uM [%]
47 | CCOC(=O)NC1CCS(=O)(=O)C1 (centres unmarked) | 1.05
48 | CC(Cc1ccccc1)[n+]1cc(/N=C(\[O-])Nc2ccccc2)on1 (centres unmarked) | 2.94
49 | C=CCSc1nnc(NC(=O)CSc2nc3ccccc3o2)s1 | 14.6
50 | CCOC(=O)C1=C(O)C(=O)N(CCCn2ccnc2)C1c1ccc(OC)cc1 (centres unmarked) | 1.97
51 | COc1ccc(CCNS(=O)(=O)c2ccc3c(c2)CCN3C(=O)CCC(=O)O)cc1OC | 10.3
52 | CC(=O)Nc1cccc(NC(=O)c2c(-c3ccccc3)noc2C)c1 | 12.7
53 | CCNC(=O)OCc1cn(-c2ccccc2)nn1 | 15.4
54 | CCOC(=O)c1ccc(NC(=O)Cn2c(C)nc3c(sc(=S)n3CC)c2=O)cc1 | 9.91
55 | Cc1nn(C)cc1NC(=O)CC12CC3CC(CC(C3)C1)C2 | -1.57
56 | C(=N\Nc1nn2cnnc2c2ccccc12)/c1ccco1 | 16.3
57 | CC(=O)c1sc(NS(=O)(=O)c2ccc(C)cc2)nc1-c1ccccc1 | 14.5
58 | COc1ccccc1C(=O)Nn1c(C2CCC2)nc2ccccc2c1=O | 4.52
59 | O=C(N/N=C/c1ccc2c(c1)OCO2)C1CC1 | 0.968
60 | COc1ccc(CCCc2nnc(SCC(=O)Nc3ncc(C)s3)o2)cc1 | 3.01
61 | CC(=O)c1ccc(N2CC(C)(C)C2=O)cc1 | -0.722
62 | COc1ccccc1-n1cc(C(=O)NCC(=O)N2CCN(c3ccccc3)CC2)c2ccccc2c1=O | -6.13
63 | COc1ccc(CC(=O)Nc2c3c(nn2-c2cccc(C)c2C)CS(=O)C3)cc1 (centres unmarked) | 1.7
64 | CCn1c(SCC(=O)N2CCC(C)CC2)nc2c(c1=O)SCC2 | 3.75
65 | CCC(Oc1ccccc1F)C(=O)NCCCn1ccnc1 (centres unmarked) | 11.1
66 | CCOC(=O)c1c(C)[nH]c(C(=O)CSc2nnc(-c3cccs3)n2Cc2ccccc2)c1C | 15.9
67 | O=C(/C=C/c1ccc(Cl)cc1Cl)N1CCN(c2ccccc2[N+](=O)[O-])CC1 | -43.2
68 | O=C(Cc1coc(-c2ccc(F)cc2)n1)NC1CCCCC1 | 15.2
69 | O=C(C1=C(O)C(=O)N(Cc2ccco2)C1c1cccs1)c1cccs1 (centres unmarked) | 14.4

Row | SMILES | hERG current change (%, negative = inhibition) at 1uM [%]
70 | O=[N+]([O-])c1ccc(N2CCCCC2)nc1N1CCCCC1 | 7.89
71 | C/C(=N\NC(=O)c1cccc([N+](=O)[O-])c1)c1cccs1 | 9.15
72 | O=C(COC(=O)Cc1ccccc1F)NCCc1ccccc1 | 2.52
73 | CCN(CC)Cc1c(O)c(Cl)cc2c(C)c(C)c(=O)oc12 | 4.95
74 | COc1ccccc1NC(=O)C1=C(C)NC2=C(C(=O)CCC2)C1c1ccc(C)o1 (centres unmarked) | 7.31
75 | COc1ccc(Nc2nnc(SCC3CCCCO3)s2)cc1 (centres unmarked) | 10.3
76 | O=C(NC1=NCCS1)c1cc(-c2ccccc2)nn1-c1ccccc1 | 13.9
77 | COc1cc(SC)ccc1C(=O)N1CCN(c2ccccc2F)CC1 | -18.2
78 | Fc1ccc(CNC(=S)NCc2ccccc2)cc1 | 1.12
79 | CS(=O)(=O)N1CCSC1c1ccc(Br)cc1 (centres unmarked) | 6.83
80 | COc1cc2c(=O)n(CCC(=O)NCC3CCCO3)c(=O)n(CC(=O)Nc3ccc(C)c(C)c3)c2cc1OC (centres unmarked) | 11.6
81 | Cc1nccc(-c2cccc(NC(=O)Nc3ccc(Cl)cc3)c2)n1 | 12
82 | Cc1ccccc1CN1CCN(Cc2cc3ccccc3o2)CC1CCO (centres unmarked) | 8.86
83 | COc1ccc(CNC(=O)CN(C(=O)c2csnn2)c2ccc3c(c2)OCCO3)cc1 | 7.47
84 | COC(=O)C1C(=O)C2=C(CC1C)Nc1ccccc1NC2c1ccc(C)s1 (centres unmarked) | 12.8
85 | Cc1cc(C)c(NC(=O)CCc2c(C)noc2C)c(C)c1 | 17.9
86 | Cc1ccc2c(Cl)cc(Cl)c(OCC(=O)OCC(=O)Nc3ccc(C#N)cc3)c2n1 | 6.52
87 | O=C1NC(=O)c2cc(Oc3ccc([N+](=O)[O-])cc3)ccc21 | 10.6
88 | CN(C)c1ccc(NS(=O)(=O)c2ccc(Cl)cc2)cc1 | 6.28
89 | O=C(NCCN1CCN(c2ccccc2)CC1)c1cccc(Br)c1 | -23.2
